Results from paper PMC4336329 (PLoS ONE, 2015).
The campaign covered roughly 310,000 compounds. About 2,200 (0.71%) showed an effect of 50% or more. Effects have a minus sign here. This is one part of the list.

biological target: human ether-à-go-go-related gene (hERG) potassium channel (human, UniProt Q12809); test: primary screen, population patch clamp on CHO cells stably expressing hERG
Sequence (Q12809 whole entry, looked up): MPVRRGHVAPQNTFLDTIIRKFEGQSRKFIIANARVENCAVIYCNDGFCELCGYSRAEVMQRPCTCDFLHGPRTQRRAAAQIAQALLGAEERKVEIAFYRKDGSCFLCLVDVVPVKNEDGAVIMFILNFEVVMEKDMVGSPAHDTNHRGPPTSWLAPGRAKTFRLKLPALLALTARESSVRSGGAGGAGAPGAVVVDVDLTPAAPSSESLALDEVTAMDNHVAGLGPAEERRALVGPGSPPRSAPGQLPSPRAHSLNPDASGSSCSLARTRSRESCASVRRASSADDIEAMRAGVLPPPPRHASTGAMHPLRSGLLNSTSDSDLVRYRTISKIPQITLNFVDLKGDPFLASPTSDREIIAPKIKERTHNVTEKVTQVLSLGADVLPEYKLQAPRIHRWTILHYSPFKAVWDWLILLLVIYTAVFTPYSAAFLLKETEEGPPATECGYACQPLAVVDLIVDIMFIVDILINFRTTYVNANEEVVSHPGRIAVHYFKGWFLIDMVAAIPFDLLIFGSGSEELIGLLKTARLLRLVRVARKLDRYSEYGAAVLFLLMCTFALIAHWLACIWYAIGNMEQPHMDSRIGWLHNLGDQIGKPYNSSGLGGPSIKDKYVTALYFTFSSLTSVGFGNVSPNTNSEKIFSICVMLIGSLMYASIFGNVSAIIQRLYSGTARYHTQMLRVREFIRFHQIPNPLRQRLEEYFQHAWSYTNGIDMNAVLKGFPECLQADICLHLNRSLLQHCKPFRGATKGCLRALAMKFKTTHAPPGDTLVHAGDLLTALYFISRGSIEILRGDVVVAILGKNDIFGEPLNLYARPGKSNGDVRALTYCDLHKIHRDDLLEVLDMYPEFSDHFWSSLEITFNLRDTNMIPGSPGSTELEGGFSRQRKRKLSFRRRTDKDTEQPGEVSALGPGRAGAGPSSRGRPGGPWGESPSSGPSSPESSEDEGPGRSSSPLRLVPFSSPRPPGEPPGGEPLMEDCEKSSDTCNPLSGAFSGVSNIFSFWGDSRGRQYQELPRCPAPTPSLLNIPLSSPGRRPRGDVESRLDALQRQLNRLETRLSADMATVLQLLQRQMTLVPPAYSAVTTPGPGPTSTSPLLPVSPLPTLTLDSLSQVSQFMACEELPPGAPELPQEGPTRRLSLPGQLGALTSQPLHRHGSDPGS

| Compound | hERG current change (%, negative = inhibition) at 1uM [%] |
| --- | --- |
| COc1ccc(C(=O)CSc2nc(C)cc(C)n2)cc1C | -1.62 |
| Fc1cc(NCc2ccccc2)nc(NCc2ccccc2)n1 | 11.2 |
| CCN(CC)C(=O)N[C@H]1C[C@@H]2c3cccc4[nH]cc(c34)C[C@H]2N(C)C1 | 5.01 |
| COC(=O)C(Cc1ccccc1)NC(=O)CCCC(=O)NCc1cccc(OC)c1 (centres unmarked) | 12.6 |
| Cc1ccc(NC(=S)N(CCCN2CCOCC2)Cc2cccnc2)cc1C | 10.2 |
| COc1ccc(NS(=O)(=O)c2ccc3oc(SCc4ccc(F)cc4)nc3c2)cc1 | -0.0014 |
| COC(=O)CCCC1=CC2=C(c3ccccc3)C(=O)C(C)(OC(=O)C3CCCC3)C(=O)C2=CN1C1CCCCC1 (centres unmarked) | 4.56 |
| COc1ccc(CCNc2oc(Cc3ccccc3)nc2C#N)cc1OC | -1.05 |
| Cc1ccc(S(=O)(=O)Nc2cc(Cl)ccc2-n2cncn2)cc1 | 14.3 |
| Cc1cccc(-c2onc3ccc(C(=O)/C=C/N(C)C)cc23)c1 | 5.8 |
| Nc1[nH]c(N=NC(=O)c2ccccc2O)c2ccccc12 | -57.5 |
| Cc1cc(C(=O)NNc2c(Cl)cccc2Cl)no1 | 8.19 |
| COc1cc(NC(=O)COc2ccccc2Cl)ccc1NC(=O)c1cccs1 | -13 |
| O=C(NC1=NCCS1)c1ccc(Cl)c(S(=O)(=O)N2CCCCCC2)c1 | 7.71 |
| CC(C)OC(=O)c1ccc(N2C(=O)C3CC=CCC3C2=O)cc1 (centres unmarked) | 22.7 |
| CCCC1S/C(=N/N=C/c2ccco2)NC1=O (centres unmarked) | -2.31 |
| CCN(c1cccc(C)c1)S(=O)(=O)c1ccc(-n2cccn2)cc1 | 10.2 |
| O=C(NCc1nc2ccccc2[nH]1)c1ccccc1F | 14 |
| Cc1cc(C(=O)C(C)OC(=O)C2=NNC(=O)CC2)c(C)n1-c1ccc(OC(F)F)cc1 (centres unmarked) | 1.87 |
| O=C(COc1ccccc1)NS(=O)(=O)c1ccccc1 | 5.6 |
| Cc1cc(C)n(-c2nc3ccccc3nc2N2CCN(C(=O)c3ccc(Cl)cc3)CC2)n1 | 10.6 |
| O=C(CSC1=NS(=O)(=O)c2cc(F)ccc2N1)NCc1ccc(F)cc1 | -0.235 |

| Compound | hERG current change (%, negative = inhibition) at 1uM [%] |
| --- | --- |
| Cn1cnnc1SCC(=O)c1c(N)n(Cc2ccccc2)c(=O)n(C)c1=O | 10.6 |
| COc1ccc(NC(=O)c2c([N+](=O)[O-])c(C(C)(C)C)nn2C)cc1 | 14.2 |
| O=C(Nc1ccc(Br)cc1)c1cccc(OC(=S)N2CCOCC2)c1 | 8.6 |
| C/C(CC(=O)Nc1ccc2c(c1)OCCO2)=N\NC(=O)c1cccc(O)c1 | 14.6 |
| Brc1ccc(C=Nc2ccc(Nc3ccccc3)cc2)s1 | 14.7 |
| Cc1ccccc1NC(=O)CSc1nn2c(=O)c(C)nnc2s1 | 8.3 |
| Cc1nc(SCC(=O)NC2CC2)c2c(C)c(C)sc2n1 | 12.4 |
| Cc1c(OC(C)C(=O)N2C[C@H]3C[C@@H](C2)c2cccc(=O)n2C3)ccc2c3c(c(=O)oc12)CCCC3 (some centres unmarked) | 5.92 |
| Cc1nc(-c2cccc(S(=O)(=O)N3CCCCCC3)c2)cs1 | 4.09 |
| COCCCN=Cc1c(C)[nH]n(-c2ccc(Br)cc2Br)c1=O | 16.4 |
| CC(c1nnnn1C(C)(C)C)N(Cc1cccnc1)Cc1ccccc1Cl (centres unmarked) | -1.02 |
| COc1ccccc1-n1nnnc1SCC(=O)Nc1ccccc1 | 17.5 |
| Cc1oc(-c2cc(F)ccc2F)nc1CN1CCC(C(=O)N2CCOCC2)CC1 | -22.9 |
| O=C(Nc1ccc(F)c(Cl)c1)Nc1ccc(Cl)cn1 | 7.89 |
| N#Cc1cccc(CN2CCCN(Cc3ccc(F)cc3)S2(=O)=O)c1 | 0.861 |
| O=C(CSc1ccc(-c2ccccn2)nn1)N1CCc2ccccc21 | 8.73 |
| COc1ccc(NC(=O)CSc2ccccc2)cn1 | 10.7 |
| CCCS(=O)(=O)N1CCC(C(=O)NCCN2CCCC2)CC1 | -1.86 |
| COC(=O)c1cn(NC(=O)Cc2ccc(Cl)cc2)c(=O)c2ccccc12 | -9.51 |
| CCc1ccc(N2C(=O)CC(Cn3nc(C)cc3C)C2=O)cc1 (centres unmarked) | 5.97 |
| Cc1ccsc1/C=C/c1ccc2ccccc2n1 | 3.71 |
| NC(=O)c1ccc(-n2nnnc2Oc2ccccc2)cc1 | 12.2 |
